Reference: PubChem BioAssay AID1240 (Sanford-Burnham Center for Chemical Genomics, 2008)
Screen size: about 50,000 compounds; about 800 (1.6%) showed an effect of 50% or more. The list shows a part of the results.

Each molecule was assayed against Bcl-2-like protein 10 (Homo sapiens) (UniProt Q9HD36) (assay: TR3 peptide-Bcl-B binding displacers, biochemical primary FP assay, phenotype converters (AID 1240;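 also: 0% = Bcl-B with tracer peptide and DMSO and 100% = tracer peptide lacking Bcl-B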)). Conditions: GST-Bcl-B / FITC-TR3 peptide fluorescence polarization; stronger effect = higher value; compound at 3.75 mg/L.
Chain of UniProt Q9HD36 (Q9HD36 whole entry, looked up): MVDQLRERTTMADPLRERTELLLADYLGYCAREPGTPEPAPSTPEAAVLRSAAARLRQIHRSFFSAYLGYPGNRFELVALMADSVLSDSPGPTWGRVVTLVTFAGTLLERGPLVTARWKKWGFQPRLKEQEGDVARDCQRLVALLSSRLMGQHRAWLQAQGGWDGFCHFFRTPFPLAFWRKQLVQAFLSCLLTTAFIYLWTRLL
`O=C(COc1ccccc1[N+](=O)[O-])Nc1ccc(-c2nc3ncccc3o2)cc1` was tested, and the displacement was 2.9%.
Molecule `NC(=O)SCC(=O)Nc1ccc(Br)cc1` has a displacement of 4.1%.
Work on `COC(=O)c1cccc(-c2ccc(C=C3C(=O)N(C)C(=O)N(C)C3=O)o2)c1` yielded a displacement of 7.7%.
`CC1=NN(C(=O)CCc2ccccc2)C(O)(c2ccc(Br)cc2)C1` (centres undefined) showed a displacement of 1.9%.
For `COc1ccc(/C=N/NC(=O)c2ccc(=O)n(C)c2)cc1`, the displacement was 5%.
`O=C(c1ccc(Cl)c(Cl)c1)N1CCOCC1` was tested, and the displacement was 1.5%.
`O=C(Nc1ccc2nn(-c3ccc(F)cc3)nc2c1)c1cccnc1` gave a displacement of -2.2%.
Work on `CCCc1cc(=O)oc2cc(C)cc(O)c12` yielded a displacement of 11%.
`CCOC(=O)c1ccccc1NC(=O)CN(c1ccc(OC)cc1)S(=O)(=O)c1ccc(C)cc1` was tested, and the displacement was -0.7%.
Molecule `O=C(NCc1ccccc1)c1cc2nc(-c3cccs3)cc(C(F)(F)F)n2n1` has a displacement of -15.2%.
`COc1ccc(C(=O)CC2(O)C(=O)Nc3ccccc32)cc1OC` (centres undefined) was tested, and the displacement was -6.9%.
`NS(=O)(=O)c1ccc(NC(=O)CCN2C(=O)S/C(=C\c3ccc(Cl)cc3)C2=O)cc1` was tested, and the displacement was -5.5%.
`Cc1ccccc1NC(=O)C(=O)NCc1ccccn1` showed a displacement of 1.7%.
`CCOc1ccc(NC(=O)c2ccc(S(=O)(=O)N3CCOCC3)cc2)cc1` gave a displacement of 6.6%.
`O=C(Cc1ccccc1)NCc1ccc(Cl)cc1` gave a displacement of -5.1%.
Work on `CCOC(=O)/C(=C\c1cccc(Br)c1)NC(=O)c1ccccc1` yielded a displacement of -2.3%.
In the case of `CCOc1cc(/C=C2\C(=O)NC(=O)N(c3ccc(Cl)cc3)C2=O)cc(I)c1OC`, the displacement is reported as 12.9%.
`O=C1C(=O)N(CCO)C(c2ccccc2[N+](=O)[O-])/C1=C(\O)c1ccccc1` (centres undefined) showed a displacement of -6.8%.
Work on `COc1ccc(/C=C2\NC(=O)C(C=NCc3ccccc3)=C2O)cc1` yielded a displacement of -9.3%.
`COc1ccccc1CNC(=O)c1c(Cl)cccc1Cl` gave a displacement of 3.4%.
Work on `Cc1ccc(-c2nc3c(cnn3-c3ccccc3)c(=O)o2)cc1` yielded a displacement of 7.2%.
`COc1ccccc1C1SCCN1C(=O)/C=C\C(=O)O` (centres undefined) showed a displacement of 11.2%.
`COc1ccc(C)cc1NC(=O)C(=O)NCc1cccnc1` gave a displacement of -13.8%.
`Cc1ccc(OCC(=O)NNC(=O)CC#N)c(C)c1` gave a displacement of -8.5%.
With `O=C1C(=Cc2cccc(OCc3ccccc3)c2)C(=O)c2ccccc21` the displacement was 38.5%.
`O=S(=O)(c1ccc(Cl)c(Cl)c1)N1CCN(Cc2ccccc2)CC1` gave a displacement of -8.7%.
In the case of `COC(=O)C(Cc1ccccc1)NC(=O)c1ccccc1` (centres undefined), the displacement is reported as -10.3%.
`C/C(=N\NC(=O)COc1ccc(Cl)cc1Cl)c1cccnc1` gave a displacement of 1.9%.
`Cc1[nH]c2ccccc2c1/C=N/NC(=O)c1cccnc1` showed a displacement of 5.9%.
`COc1ccc(C=NN2CCN(Cc3ccc(C)cc3C)CC2)cc1Br` showed a displacement of 9.1%.
With `O=C(Nc1nc(-c2ccc(Br)cc2)cs1)c1cc([N+](=O)[O-])ccc1Cl` the displacement was -6.6%.
`CC(=O)C1=C(O)C(=O)N(CCCC(=O)O)C1c1ccc([N+](=O)[O-])cc1` (centres undefined) gave a displacement of -7.4%.
`CC(C)(C)c1ccc(OCC(O)CN2CCN(c3ccccc3)CC2)cc1` (centres undefined) was tested, and the displacement was 14.3%.
`CCCOc1ccc(C2C(C(=O)OC)=C(C)N(C)C(C)=C2C(=O)OC)cc1` gave a displacement of -12.5%.
`CCOC(=O)c1c(C)[nH]c(N=Nc2cccc(OC)c2)c1C` gave a displacement of 4.2%.
With `CCOc1ccc(NC(=O)/C=C\C(=O)O)cc1` the displacement was -4.2%.
Work on `COc1ccccc1CNC(=O)c1ccc([N+](=O)[O-])o1` yielded a displacement of -12%.
Molecule `COC(=O)c1ccc(C(=O)OC)c(NC(=O)C2CC3CCC2C3)c1` (centres undefined) has a displacement of -4.5%.
In the case of `O=C(Nc1ccc(F)c([N+](=O)[O-])c1)c1cccc(OCc2ccccc2)c1`, the displacement is reported as 14.4%.
With `O=C1NCC(Cn2c3ccccc3c3ccccc32)O1` (centres undefined) the displacement was -7.9%.
`CN(/N=C/c1ccccc1Sc1ccccc1)c1ccccc1` showed a displacement of 9.4%.
Molecule `CC1CCc2c(sc(N)c2C(=O)Nc2cccc(Cl)c2)C1` (centres undefined) has a displacement of -9.1%.
`O=C(NCCNC(=O)c1cccc(O)c1)c1cccc(O)c1` showed a displacement of 12.7%.
`CCN(CC)CCCNS(=O)(=O)c1ccc(C)cc1` showed a displacement of -29.4%.
`COc1ccc(C2/C(=C(\O)c3ccc(F)cc3)C(=O)C(=O)N2c2nncs2)cc1` (centres undefined) gave a displacement of 11%.
`COc1ccc(OC)c(NC(=O)c2cc(Cl)c(OC)c(Cl)c2)c1` showed a displacement of 9.5%.
Molecule `Cc1ccc(C(=O)O/N=C(\N)c2ccc(Cl)cc2)cc1` has a displacement of -7.4%.
`O=C1/C(=C/c2cccc(Cl)c2Cl)SC(=S)N1c1ccc([N+](=O)[O-])cc1` was tested, and the displacement was 2.1%.
For `COc1cc(/C=N/NC(=O)C(C)Nc2ccc(Cl)cc2)cc(OC)c1OC` (centres undefined), the displacement was 4.4%.
For `CCOc1ccc(-n2nc3ccc(NC(=S)NC(=O)c4ccccc4Cl)cc3n2)cc1`, the displacement was -10.1%.
With `CCN1C(=O)NC(c2ccc([N+](=O)[O-])cc2)C(C(=O)OCCOc2ccccc2)=C1C` (centres undefined) the displacement was 6.5%.
`CCCNC1=CC(=O)C(NCCC)=CC1=O` showed a displacement of -3.9%.
In the case of `Cc1ccc(C)c(N(CC(=O)Nc2c(C)n(C)n(-c3ccccc3)c2=O)S(=O)(=O)c2ccccc2)c1`, the displacement is reported as 5.5%.
`COc1ccc(NC(=O)O/N=C\c2ccccc2Cl)cc1` gave a displacement of 2.1%.
In the case of `O=C(NCC1CCCO1)c1cc2n(n1)C(C(F)(F)F)CC(c1ccco1)N2` (centres undefined), the displacement is reported as 0.4%.
For `Cc1ccc(-c2nc(N/N=C/c3cccc(F)c3)c3ccccc3n2)cc1`, the displacement was 5%.
`COc1ccc(Nc2nc(-c3ccc(C)cc3)c(C)s2)cc1` was tested, and the displacement was -9.4%.
With `COc1ccc(N=C2SC(C(=O)N3CCN(c4ccc([N+](=O)[O-])cc4)CC3)CC(=O)N2C)cc1` (centres undefined) the displacement was -12%.
Molecule `COc1ccc2oc3ccc(OC)cc3c(=O)c2c1` has a displacement of -4.2%.
With `Oc1ccccc1/C=N/n1c(-c2ccccc2)n[nH]c1=S` the displacement was -12.4%.
`C=CC(=O)NC(NC(=O)C=C)c1ccc(OC)c(OC)c1` showed a displacement of -5.5%.
In the case of `Cc1ccc(-c2cc(C(=O)N3CCCCC3)c3ccccc3n2)s1`, the displacement is reported as -11%.
`CCN(CC)c1ccc(/C=C(\C#N)C(=O)Nc2ccc(OC)cc2)c(OC)c1` was tested, and the displacement was -6.6%.
For `Cc1c(C(=O)NCCCC(=O)O)c(-c2ccccc2)nn1-c1ccccc1`, the displacement was 17.9%.
In the case of `CCOC(=O)C1=C(O)/C(=C/c2ccccc2Cl)SC1=Nc1ccccc1`, the displacement is reported as 19.1%.
`COc1ccc(/C=C/c2cc(C(F)(F)F)[nH]c(=O)n2)cc1` gave a displacement of 12.4%.
`CN(C)c1ccc(C(O)(c2ccccc2)c2ccccc2)cc1` showed a displacement of -21.3%.
`CC1=NN(c2ccc(S(N)(=O)=O)cc2)C(=O)/C1=C\c1ccc2c(c1)OCO2` showed a displacement of -13.4%.
`COc1ccc(OC)c(N(CC(=O)N2CCN(c3ccccc3)CC2)S(=O)(=O)c2ccccc2)c1` was tested, and the displacement was -15.2%.
For `CCOC(=O)c1c(Cl)cc(Cl)c(N)c1[N+](=O)[O-]`, the displacement was -9.9%.
Molecule `O=C(c1cc(Br)ccc1Cl)N1CCN(c2ccc([N+](=O)[O-])cc2)CC1` has a displacement of 9.6%.
Work on `COc1ccc(-c2csc(-c3nc(-c4ccc(OC)c(OC)c4)cs3)n2)cc1OC` yielded a displacement of -6.7%.
Work on `O=C1NC(=S)N(c2cccc(Br)c2)C(=O)/C1=C/c1ccccc1O` yielded a displacement of 6.5%.
`CC(N=C(NS(=O)(=O)c1ccc(Cl)cc1)c1ccccc1)C(=O)O` (centres undefined) showed a displacement of 9.6%.
For `COc1cc(NC(=O)c2cccc(OCc3ccccc3)c2)ccc1NC(=O)c1ccco1`, the displacement was 2.8%.
Work on `O=C1N=c2ccc(Br)cc2=C1c1sc(=S)n(NC(=O)c2ccccc2Cl)c1O` yielded a displacement of -3.2%.
Molecule `CC1(C)CC(=O)C=C(Nc2cc([N+](=O)[O-])ccc2N)C1` has a displacement of -6.8%.
`O=C(NN1C(=O)/C(=C\c2ccccc2Cl)SC1=S)c1ccc(Br)cc1` was tested, and the displacement was 6.9%.
With `Cc1ccccc1NC(=O)C(=O)NCCc1ccc(Cl)cc1` the displacement was 16.2%.
Work on `O=C1N=c2ccccc2=C1c1sc(N2CCCCC2)nc1O` yielded a displacement of 8.1%.
Work on `CCOC(=O)c1ccc(NC(=O)CCCN2C(=O)/C(=C/c3ccc(OC)cc3)SC2=S)cc1` yielded a displacement of -3.5%.
Molecule `CC(=O)Nc1ccccc1NC(=O)COc1ccc(C)cc1C` has a displacement of -0.3%.
For `CCOC(=O)C1=C(C)N=c2s/c(=C\c3ccc(OC)cc3)c(=O)n2C1c1ccc(OC)cc1` (centres undefined), the displacement was -5.7%.
`CC(=O)C1=C(O)C(=O)N(CC2CCCO2)C1c1ccc(C)cc1` (centres undefined) was tested, and the displacement was -0.8%.
Work on `Cc1cccc(OCCNc2cc(Cl)ccc2[N+](=O)[O-])c1` yielded a displacement of 11.6%.
`CCOC(=O)C1=C(C)N=c2s/c(=C\c3ccc([N+](=O)[O-])o3)c(=O)n2C1c1ccc(OCC)cc1` (centres undefined) was tested, and the displacement was 14.7%.
Work on `O=C(COc1ccc(Br)cc1)Nc1cccnc1` yielded a displacement of 2.3%.
In the case of `c1ccc(CNCC2COc3ccccc3O2)cc1` (centres undefined), the displacement is reported as 7.1%.
In the case of `C=COCCNC(=O)C(=O)Nc1ccccc1C`, the displacement is reported as 4.4%.
With `Cc1ccc(OCC(=O)Nc2cc(C(=O)O)cc(C(=O)O)c2)cc1C` the displacement was 11.6%.
In the case of `Cc1cccc(/C=C2\C(=O)NC(=O)N(c3cc(C)cc(C)c3)C2=O)c1`, the displacement is reported as 6.2%.
In the case of `Cc1cccc(C)c1NC(=O)c1ccc(CN(c2ccccc2)S(C)(=O)=O)cc1`, the displacement is reported as 5.2%.
In the case of `CCOC(=O)CCC(NC(=O)c1ccc(Cl)cc1)C(=O)OCC` (centres undefined), the displacement is reported as 3.1%.
In the case of `O=C1C(Cl)=C(NC(=O)c2ccccc2)C(=O)C(Cl)=C1NC(=O)c1ccccc1`, the displacement is reported as 0.6%.
In the case of `COc1ccccc1N1CCN(C(=O)c2cccc(I)c2)CC1`, the displacement is reported as -10.3%.
Molecule `CCOc1c(/C=C(\C#N)C(N)=O)c2ccccc2n1CC` has a displacement of -4.8%.
`CCOC(=O)C1=C(C)NC(=O)NC1c1ccc(N(C)C)cc1` (centres undefined) gave a displacement of -11.8%.
Work on `CCOc1ccc(NC(=O)c2cccc(-c3ccc(OC(C)=O)cc3)c2)cc1` yielded a displacement of 8%.
With `O=C(NCc1ccco1)C1C2C3CCC(C3)C12` (centres undefined) the displacement was -3.2%.
`CC(=O)C(C(C)=O)C(c1ccc(C)o1)c1ccc(C)o1` showed a displacement of -3.7%.
In the case of `O=c1oc2cc(O)ccc2cc1-c1csc(-c2ccc(-c3ccccc3)cc2)n1`, the displacement is reported as 116%.
For `Cc1cc(=O)[nH]c(SCc2ccc([N+](=O)[O-])cc2)n1`, the displacement was -7.4%.
`Cc1ccc(S(=O)(=O)Nc2ccccc2-c2ccccc2)cc1[N+](=O)[O-]` gave a displacement of -2.7%.
Molecule `Cc1cc(/C=C2/NC(=S)NC2=O)c(-c2ccccc2)n1-c1ccccc1` has a displacement of -14.7%.
Work on `O=C(c1cccc(C#Cc2ccccc2)c1)N1CCN(c2ccccc2F)CC1` yielded a displacement of -5.8%.
`Oc1ccc2cc(Br)ccc2c1C=Nc1ccc(Br)cn1` gave a displacement of 8.7%.
Molecule `COCc1cc(CN(C)C2CCCCC2)c(O)c2ncccc12` has a displacement of 2.3%.
For `C/C(=N/N1CCN(Cc2ccccc2Cl)CC1)c1cccc([N+](=O)[O-])c1`, the displacement was -11.5%.
`CCOC(=O)CCCC[C@H]1SC[C@@H](NC(=O)OC)[C@H]1NC(=O)OC` was tested, and the displacement was 0%.
